# Measurements published in the supplement of paper PMC3334620.
# In all, about 33,000 sequences were measured (“E-score (-0.5 to 0.5)”: median about -0.035, highest 2% from about 0.34 on). This is one part of the list.
# Target: T1, Mot3 (UniProt P54785)
# T1 sequence: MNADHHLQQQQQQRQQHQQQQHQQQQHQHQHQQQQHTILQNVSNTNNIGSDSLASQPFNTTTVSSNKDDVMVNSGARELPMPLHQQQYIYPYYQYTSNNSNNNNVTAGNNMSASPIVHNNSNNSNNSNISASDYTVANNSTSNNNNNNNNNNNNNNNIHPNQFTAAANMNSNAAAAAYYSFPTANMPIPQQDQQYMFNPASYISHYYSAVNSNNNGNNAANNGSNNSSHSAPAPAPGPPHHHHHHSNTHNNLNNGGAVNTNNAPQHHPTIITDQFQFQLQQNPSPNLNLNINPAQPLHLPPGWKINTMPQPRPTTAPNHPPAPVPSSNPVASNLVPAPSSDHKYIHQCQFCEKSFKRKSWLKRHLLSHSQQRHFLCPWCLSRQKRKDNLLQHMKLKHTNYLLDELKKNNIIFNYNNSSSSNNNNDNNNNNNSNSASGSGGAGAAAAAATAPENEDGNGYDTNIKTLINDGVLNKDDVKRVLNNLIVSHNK
# Assay: PBM E-score (8-mer binding enrichment) (E-score (-0.5 to 0.5)); higher = stronger / more preferred TF binding; most listed sequences are background and not binding sites
# Details: protein concentration: 200 nM; construct: GST-full length
# How it was run: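 Full-length yeast transcription factors or their DNA-binding domains, GST-tagged and expressed with PURExpress, were applied at about 100-200 nM to universal all-10-mer Agilent arrays. These arrays had been made double-stranded by primer extension on fresh or once-stripped slides. Detection used fluorescent anti-GST, normalisation used masliner, and E-scores for ungapped eight-base words pooled with reverse complements came from the Universal PBM Analysis Suite.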
row,Sequence,PBM E-score
1,GCATGACA,0.116
2,CTGCGTTA,0.141
3,AACCAAAT,0.127
4,GATTGCCA,-0.37
5,CTCACTGA,-0.0848
6,CACCGGCC,-0.0883
7,GGGCAGAC,-0.368
8,ACTTTCGA,-0.149
9,GCGTACGC,-0.129
10,AAAAGTTA,0.197
11,GGCAGTGA,-0.214
12,CAAAAGAG,-0.00708
13,AATCGGCA,-0.192
14,TCTTTCCA,-0.235
15,CCAGCCCG,-0.349
16,CCTACAGG,0.164
17,ATAACAAG,0.301
18,AAAGGTAA,0.324
19,AATTCAAC,0.0932
20,CGATGGAC,-0.0128
21,ATATTTGG,0.0141
22,GACTACGC,-0.0095

row,Sequence,PBM E-score
1,ACTATCCG,-0.0827
2,CTCCGGAA,-0.144
3,AGGATCTA,-0.245
4,GGAAAAGA,-0.0156
5,ATTACGGA,0.0377
6,AATCCCGT,0.0741
7,GATGTAAA,0.35
8,TCGTAACA,0.127
9,GGCCGCAC,-0.222
10,ATGGAACA,-0.111
11,AGGGAAAC,-0.154
12,AGAGGTAA,-0.019
13,GATCCGAA,-0.272
14,TATGATCA,0.00091
15,CGTTAAAC,0.194
16,CACTAAAA,0.189
17,CCCTTAGC,-0.281
18,AACGAAGA,-0.00236
19,CTCCTTGC,-0.0223
20,GGCCGAAA,-0.186
21,AGAATGGG,-0.245
22,AAACGGTC,-0.13

row,Sequence,PBM E-score
1,CCTATGGC,-0.0395
2,ACTCAGGA,0.0148
3,GCCGCGCA,-0.26
4,AAAACGTG,0.156
5,AAGATCGG,-0.159
6,GCGGTAAC,0.063
7,ATGGGTAA,0.0417
8,GTGGCAAC,-0.0139
9,CTTACTCC,0.0194
10,ACTCCCCA,-0.173
11,AGTGTCTA,0.0204
12,CCGCCCCA,-0.131
13,CGTAATCA,0.285
14,ACTTACAA,0.22
15,AAGAGTAA,0.185
16,ATTCCTCG,-0.0566
17,AACCGTAT,-0.187
18,CTATAGTC,0.154
19,CAACACCG,-0.135
20,AGGCGACT,0.00152
21,CCTAAGGA,0.0581
22,ACTTCGGA,-0.0776

row,Sequence,PBM E-score
1,AGAAAGCG,0.158
2,CCCTATGC,-0.0966
3,AAAAGGAC,0.171
4,AACCACTG,-0.13
5,GAGCCCGA,-0.157
6,ACCGCAGT,-0.00425
7,ACCGACCC,-0.256
8,CCCTCTAC,-0.00576
9,AATGATTC,-0.203
10,AGCCCGCA,-0.199
11,ACCTGAGA,0.172
12,TCGGAGCA,-0.297
13,CCGAACCA,-0.223
14,AAATGCCG,0.0422
15,AAGCTGAC,-0.182
16,CCGGCATC,-0.253
17,ATTGAAGG,0.192
18,CCTGTGAC,0.166
19,CAAACGGC,-0.245
20,CCTTCGTC,0.012
